From PubChem BioAssay (NCATS)
Inconclusive results, whose numbers are uncertain, are shown with a selection of clear calls. Potencies of inconclusive entries are doubtful fits and often do not repeat. Calls of active or inactive are those of the source. Calls come from the whole dose curve; as a rule, active = well fitted curve in the direction sought with a large enough effect; inconclusive = small, poorly fitted or top-dose-only effect, or another doubt; inactive = no such curve, though single readings can be large; an effect the other way counts as inactive or inconclusive.

How the values were obtained:
[1] = qHTS of pediatric cancer cell lines to identify multiple opportunities for drug repurposing: Confirmatory screen for BT-37 cells (AID 1347117);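 note: viability measured after 48 h of compound exposure; nearly all actives have a fitted effect of over 55% in size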;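 for activity change, negative = cytotoxic: plate controls were DMSO for no effect and bortezomib for full effect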
Method in brief: (§1)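 Cells (500-1,000/well) in growth media were settled 5 h at 37 degrees C, then given compounds for 48 h. Viability was read as CellTiter-Glo luminescence. Primary runs used MIPE at 11 points (0.78 nM-46 µM) and NPC at 8 points (0.59 nM-46 µM); follow-ups used 11 points.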

[2] = qHTS of pediatric cancer cell lines to identify multiple opportunities for drug repurposing: Confirmatory screen for TC32 cells (AID 1347118);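 note: cells exposed to compound for 48 h before the read; nearly all actives have a fitted effect of over 65% in size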; for activity change, negative = cytotoxicity: % is set by controls: 0 for no effect and ±100 for the full control effect
Method in brief: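 Luminescent ATP read-out (CellTiter-Glo) of metabolically active TC32 cells after 48 h exposure. Concentration-response curves came from 11-point (MIPE, 0.78 nM–46 µM) or 8-point (NPC, 0.59 nM–46 µM) primary titrations; follow-up used 11 points.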

[3] = qHTS of pediatric cancer cell lines to identify multiple opportunities for drug repurposing: Confirmatory screen for MG 63 (6-TG R) cells (AID 1347119); settings: MG-63 (6-TG resistant) osteosarcoma viability; activity change, negative = cytotoxicity: at 45.9 µM (top of the series); note: nearly all actives have a fitted effect of over 55% in size;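 for activity change, negative = cytotoxicity: plate controls were DMSO neutral control for no effect and bortezomib for full effect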
Method in brief: as §1

[4] = qHTS of pediatric cancer cell lines to identify multiple opportunities for drug repurposing: Confirmatory screen for Rh41 cells (AID 1347123);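 note: 48 h compound exposure; nearly all actives have a fitted effect of over 60% in size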
Method in brief: as §1

[5] = qHTS of pediatric cancer cell lines to identify multiple opportunities for drug repurposing: Confirmatory screen for RD cells (AID 1347124); settings: RD rhabdomyosarcoma cell viability; activity change, negative = cytotoxic: at 45.9 µM (top of the series);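 note: cells exposed to compound for 48 h before viability readout; nearly all actives have a fitted effect of over 65% in size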; for activity change, negative = cytotoxic: % is set by controls: 0 for no effect and ±100 for the full control effect
Method in brief: as §1

[6] = qHTS of pediatric cancer cell lines to identify multiple opportunities for drug repurposing: Confirmatory screen for Rh30 cells (AID 1347126); note: nearly all actives have a fitted effect of over 55% in size; for activity change, negative = cytotoxic: % is set by controls: 0 for no effect and ±100 for the full control effect
Method in brief: as §1

[7] = qHTS of pediatric cancer cell lines to identify multiple opportunities for drug repurposing: Confirmatory screen for Saos-2 cells (AID 1347127); note: nearly all actives have a fitted effect of over 60% in size;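 for activity change, negative = cytotoxic: plate controls were DMSO for no effect and bortezomib for full effect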
Method in brief: as §1

[8] = qHTS of pediatric cancer cell lines to identify multiple opportunities for drug repurposing: Confirmatory screen for U-2 OS cells (AID 1347122); note: nearly all actives have a fitted effect of over 65% in size;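 for activity change, negative = cytotoxicity: plate controls were DMSO for no effect and bortezomib for full effect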
Method in brief: as §1

[9] = qHTS of pediatric cancer cell lines to identify multiple opportunities for drug repurposing: Confirmatory screen for Rh18 cells (AID 1347125); settings: Rh18 rhabdomyosarcoma cells, viability; activity change, negative = cytotoxic: at 45.9 µM (top of the series); note: nearly all actives have a fitted effect of over 55% in size; for activity change, negative = cytotoxic: % is set by controls: 0 for no effect and ±100 for the full control effect
Method in brief: as §1
Potency is the fitted concentration of half-maximal effect; tags give direction and shape of the fitted curve.

Row | SMILES | Potency [1] | Potency [2] | activity change, negative = cytotoxicity [3] | Potency [4] | Potency [5] | Potency [6] | Potency [7] | Potency [3] | Potency [8] | Potency [9]
1 | CC(=O)OCC(=O)[C@@]1(OC(C)=O)[C@@H](C)C[C@H]2[C@@H]3C[C@H](F)C4=CC(=O)C=C[C@]4(C)[C@@]3(F)[C@@H](O)C[C@@]21C | inconclusive: 26.1 µM [cytotoxic, single point] | inconclusive: 36.9 µM [cytotoxic, single point] | inconclusive: -45.6% [cytotoxic] | inconclusive: 23.3 µM [cytotoxic, partial curve, poor fit] | inactive | inactive | inactive | – | – | –
2 | NS(=O)(=O)OC[C@@H]1C[C@@H](n2ccc3c(N[C@H]4CCc5ccccc54)ncnc32)C[C@H]1O | inactive | – | – | inconclusive: 8.27 µM [cytotoxic, full curve] | inactive | – | – | inactive | inactive | –
3 | CC(C)CN(C[C@@H](O)[C@H](Cc1ccccc1)NC(=O)O[C@H]1CO[C@H]2OCC[C@H]21)S(=O)(=O)c1ccc(N)cc1 | inconclusive: 16.5 µM [cytotoxic, partial curve] | inactive | – | – | inconclusive: 32.9 µM [cytotoxic, single point] | – | inactive | inactive | inactive | inconclusive: 23.3 µM [cytotoxic, single point]
4 | C=Cc1c(C)c2cc3nc(cc4[nH]c(cc5nc(cc1[nH]2)C(C)=C5CCC(=O)O)c(CCC(=O)OC)c4C)[C@@]1(C)C3=CC=C(C(=O)OC)[C@H]1C(=O)OC | inconclusive: 18.5 µM [cytotoxic, partial curve, poor fit] | inconclusive: 23.3 µM [cytotoxic, single point] | – | inconclusive: 14.7 µM [cytotoxic, partial curve] | inconclusive: 32.9 µM [cytotoxic, single point] | – | inactive | inconclusive: 14.7 µM [cytotoxic, partial curve] | – | –
5 | CC(=O)[C@H]1CC[C@H]2[C@@H]3C[C@H](C)C4=CC(=O)CC[C@]4(C)[C@H]3[C@@H](O)C[C@]12C | inconclusive: 4.65 µM [cytotoxic, partial curve, poor fit] | inconclusive: 10.4 µM [cytotoxic, single point] | – | – | inactive | inactive | inconclusive: 7.37 µM [cytotoxic, single point] | – | – | –
6 | CN(C)C(=S)SC(=S)N(C)C | active: 3.69 µM | active: 3.69 µM | – | – | inconclusive: 4.14 µM [cytotoxic, full curve] | – | inconclusive: 16.5 µM [cytotoxic, partial curve] | inconclusive: 2.33 µM [cytotoxic, full curve] | – | –
7 | Cc1nn(Cc2ccccc2Cl)c(C)c1CN(C)CC(O)COc1ccc(Cl)cc1 (stereo not given) | inconclusive: 26.1 µM [cytotoxic, single point] | inconclusive: 26.1 µM [cytotoxic, single point] | – | – | inconclusive: 32.9 µM [cytotoxic, single point] | inconclusive: 23.3 µM [cytotoxic, partial curve] | inconclusive: 32.9 µM [cytotoxic, single point] | inconclusive: 36.9 µM [cytotoxic, partial curve, poor fit] | – | inconclusive: 29.3 µM [cytotoxic, single point]
8 | CN(Cc1cnc2nc(N)nc(N)c2n1)c1ccc(C(=O)N[C@@H](CCC(=O)O)C(=O)O)cc1 | inconclusive: 0.0465 µM [cytotoxic, full curve] | – | – | inconclusive: 7.37 µM [cytotoxic, partial curve] | active: 0.0827 µM | inactive | inconclusive: 0.465 µM [cytotoxic, full curve] | – | – | inactive
9 | CCCC(=O)O[C@]1(C(=O)CO)CC[C@H]2[C@@H]3CCC4=CC(=O)CC[C@]4(C)[C@H]3[C@@H](O)C[C@@]21C | inactive | inactive | – | – | – | inactive | inconclusive: 11.7 µM [rising, single point] | – | – | –
10 | Cn1cnc([N+](=O)[O-])c1Sc1ncnc2nc[nH]c12 | inconclusive: 1.69 µM [cytotoxic, full curve] | active: 1.34 µM | – | inconclusive: 26.7 µM [cytotoxic, partial curve] | – | inconclusive: 1.5 µM [cytotoxic, full curve] | inactive | inconclusive: 47.5 µM [rising, single point] | inconclusive: 11.9 µM [cytotoxic, partial curve] | inconclusive: 33.7 µM [cytotoxic, partial curve]
